This note sets out measurements from PMC4336329 (PLoS ONE, 2015).

Out of some 310,000 compounds screened, about 2,200 (0.71%) showed an effect of 50% or more. The effect is printed as a negative number. This is one part of the list.

Sequence of human ether-à-go-go-related gene (hERG) potassium channel (Q12809 whole entry, looked up): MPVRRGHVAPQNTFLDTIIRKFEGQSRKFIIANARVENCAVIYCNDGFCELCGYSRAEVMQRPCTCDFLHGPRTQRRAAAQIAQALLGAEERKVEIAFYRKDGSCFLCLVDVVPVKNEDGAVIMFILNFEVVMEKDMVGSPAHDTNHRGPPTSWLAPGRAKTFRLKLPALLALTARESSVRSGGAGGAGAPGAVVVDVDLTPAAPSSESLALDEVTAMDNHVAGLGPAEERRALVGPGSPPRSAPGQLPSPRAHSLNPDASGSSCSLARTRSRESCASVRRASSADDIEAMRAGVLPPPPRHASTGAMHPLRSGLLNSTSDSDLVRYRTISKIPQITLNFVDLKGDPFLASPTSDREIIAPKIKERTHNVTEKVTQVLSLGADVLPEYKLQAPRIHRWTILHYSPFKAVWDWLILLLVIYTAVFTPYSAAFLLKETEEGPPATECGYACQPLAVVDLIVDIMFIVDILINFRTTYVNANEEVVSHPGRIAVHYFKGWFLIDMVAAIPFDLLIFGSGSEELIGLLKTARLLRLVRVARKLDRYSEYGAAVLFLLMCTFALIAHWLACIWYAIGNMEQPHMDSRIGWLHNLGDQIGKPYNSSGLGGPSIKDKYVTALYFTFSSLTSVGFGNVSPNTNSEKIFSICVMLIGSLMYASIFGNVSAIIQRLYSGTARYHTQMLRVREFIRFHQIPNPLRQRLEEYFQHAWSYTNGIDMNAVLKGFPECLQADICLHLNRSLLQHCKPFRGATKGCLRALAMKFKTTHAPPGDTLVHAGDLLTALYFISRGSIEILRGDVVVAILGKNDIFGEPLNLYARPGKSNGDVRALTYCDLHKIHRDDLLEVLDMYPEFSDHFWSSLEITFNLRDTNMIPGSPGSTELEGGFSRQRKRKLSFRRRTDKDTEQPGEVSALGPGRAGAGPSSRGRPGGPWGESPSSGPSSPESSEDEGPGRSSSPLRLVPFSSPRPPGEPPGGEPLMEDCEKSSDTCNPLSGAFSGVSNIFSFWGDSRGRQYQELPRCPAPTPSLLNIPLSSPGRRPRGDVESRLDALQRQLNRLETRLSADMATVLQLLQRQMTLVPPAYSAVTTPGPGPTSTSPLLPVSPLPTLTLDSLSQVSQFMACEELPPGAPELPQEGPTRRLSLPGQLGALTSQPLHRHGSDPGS

This assay has as its target human ether-à-go-go-related gene (hERG) potassium channel (human, UniProt Q12809). In words: primary screen, population patch clamp on CHO cells stably expressing hERG.
As for `COCCNC(=O)C(OC(=O)c1nsc(Cl)c1Cl)C(C)C` (stereo not shown), the “hERG current change (%, negative = inhibition) at 1uM” value is 13.1%.

For the molecule `Cn1c(SCC(=O)NCC2CCCO2)nnc1-c1cccc(NC(=O)c2ccccc2F)c1` (stereo not shown), the “hERG current change (%, negative = inhibition) at 1uM” value is given as 14.4%.

In the case of `CCCc1ncc(C(O)c2cccc(OC)c2OC)n1C` (stereo not shown), the “hERG current change (%, negative = inhibition) at 1uM” value came to 0.936%.

Regarding `Cc1cc(NC(=O)CSc2c(C)[nH]c3ccccc23)no1`, the “hERG current change (%, negative = inhibition) at 1uM” value was found to be 17.3%.

Take `CC1CN(Cc2ccccc2)C(C)CC1O` (stereo not shown): the “hERG current change (%, negative = inhibition) at 1uM” value is -4.89%.

Turning to `COC(=O)CN1C(C)=Nc2ccc(C)cc2C1c1ccccc1` (stereo not shown), the “hERG current change (%, negative = inhibition) at 1uM” value is given as -8.92%.

With `CC(C)(C)c1[nH]nc2c1C(c1cccnc1)C(C#N)=C(N)O2` (stereo not shown), the “hERG current change (%, negative = inhibition) at 1uM” value is reported as 11.7%.

As to `Cc1ccc(C(=O)NNC(=O)c2ccc(NS(=O)(=O)c3cccs3)cc2)o1`, the “hERG current change (%, negative = inhibition) at 1uM” value was -11.2%.

Consider `CCn1cc([N+](=O)[O-])c(C(=O)Nc2nc(-c3ccc(C)cc3)c(C)s2)n1`, for which the “hERG current change (%, negative = inhibition) at 1uM” value came to 1.17%.

As for `CCNC(=S)N/N=C/c1c(Cl)cccc1Cl`, the “hERG current change (%, negative = inhibition) at 1uM” value is 3.85%.

With `CC(=O)N(Cc1ccccc1)c1ncc2c(n1)c(=O)c(C#N)c1ccccn12`, the “hERG current change (%, negative = inhibition) at 1uM” value is listed as 4%.

For the molecule `O=C(CCn1c(=S)oc2ccccc21)Nc1ccc2c(c1)OCCO2`, the “hERG current change (%, negative = inhibition) at 1uM” value is reported as 8.3%.

With `CC(=O)c1cccc(NC(=O)c2ccccc2N(C)S(=O)(=O)c2ccc(C)cc2)c1`, the “hERG current change (%, negative = inhibition) at 1uM” value is 4.31%.

For the molecule `CCN(CC)S(=O)(=O)c1ccc(Cl)c(NC(=O)CSc2nnc(-c3cccs3)o2)c1`, the “hERG current change (%, negative = inhibition) at 1uM” value is 5.51%.

For `CC(C)c1ccc2[nH]c(O)c(N=NC(=O)c3cccc(S(=O)(=O)Nc4ccccc4Cl)c3)c2c1`, the “hERG current change (%, negative = inhibition) at 1uM” value turned out to be 2.57%.

On to `O=C(c1nc2ccc(Cl)cn2c1CN1CCC[C@H]1CO)N1CCCCCCC1`, for which the “hERG current change (%, negative = inhibition) at 1uM” value turned out to be 10.9%.

In the case of `O=C1/C(=C/c2cccs2)SC(=S)N1c1ccccc1`, the “hERG current change (%, negative = inhibition) at 1uM” value is on record as 16.9%.

Regarding `CN1CCN(c2ccc([N+](=O)[O-])c(SCCO)c2)CC1`, the “hERG current change (%, negative = inhibition) at 1uM” value was -14.6%.

In the case of `O=CN1CCC(=O)N(Cc2ccccc2)c2ccccc21`, the “hERG current change (%, negative = inhibition) at 1uM” value was -5.78%.

`CCN(CC(=O)Nc1ccc(NC(C)=O)cc1)C(=O)/C=C/c1cn(-c2ccccc2)nc1-c1ccc(C)cc1`: the “hERG current change (%, negative = inhibition) at 1uM” value turned out to be 16.1%.

With `COc1ccc(C/C(C)=N/NC(=S)Nc2ccc(Cl)cc2)cc1`, the “hERG current change (%, negative = inhibition) at 1uM” value was 17.2%.

Regarding `N#CCCN1CCN(C2=NC(=O)/C(=C\c3cccs3)S2)CC1`, the “hERG current change (%, negative = inhibition) at 1uM” value is -12.5%.

On to `CN1CCN(C(=O)C23CCC(C)(c4nc5ccccc5nc42)C3(C)C)CC1` (stereo not shown), for which the “hERG current change (%, negative = inhibition) at 1uM” value is reported as -12.1%.

In the case of `CCC1CCc2sc(C(=O)N(C)CC(=O)Nc3ccc(N4CCOCC4)cc3)cc2C1` (stereo not shown), the “hERG current change (%, negative = inhibition) at 1uM” value was determined as 19.2%.

`c1ccc2[nH]c(Cn3nnc4ccccc43)nc2c1`: the “hERG current change (%, negative = inhibition) at 1uM” value is listed as 6.49%.

Consider `O=C(NCc1ccco1)C(=O)c1c[nH]c2ccccc12`, for which the “hERG current change (%, negative = inhibition) at 1uM” value amounted to 12.7%.

For the molecule `CC1CN(S(=O)(=O)c2ccc(C(=O)Nc3nnc(-c4ccco4)o3)cc2)CC(C)O1` (stereo not shown), the “hERG current change (%, negative = inhibition) at 1uM” value is listed as 13.6%.

Take `Cc1cc(Cl)cc(Cl)c1CNc1c([N+](=O)[O-])c(=O)oc2ccccc12`: the “hERG current change (%, negative = inhibition) at 1uM” value is reported as 7.59%.

For `CCOC(=O)c1c(C)[nH]c(C)c1S(=O)(=O)N(C)CC(=O)Nc1cccc(C)n1`, the “hERG current change (%, negative = inhibition) at 1uM” value was found to be 2.99%.

`Cc1ccc(NC(=O)c2ccc(S(=O)(=O)NCc3cccnc3)cc2)c(C)c1`: the “hERG current change (%, negative = inhibition) at 1uM” value is on record as 13.6%.

With `O=C1CCC(=O)N1c1ccccc1OS(=O)(=O)c1ccccc1`, the “hERG current change (%, negative = inhibition) at 1uM” value is listed as 26.1%.

`CC(C)COc1ccc(C(=O)N/C(=C\c2cccc([N+](=O)[O-])c2)C(=O)O)cc1`: the “hERG current change (%, negative = inhibition) at 1uM” value stood at 11.4%.

As to `CN(C)c1ccc(C=C(C#N)C#N)cc1`, the “hERG current change (%, negative = inhibition) at 1uM” value worked out at 7.56%.

Consider `Nc1cc(OC(=O)c2c(F)cccc2Cl)nn1S(=O)(=O)c1ccccc1`, for which the “hERG current change (%, negative = inhibition) at 1uM” value was 7.34%.

Turning to `CC1CC(OC(=O)c2ccccc2)CC(C)N1C.Cl` (stereo not shown), the “hERG current change (%, negative = inhibition) at 1uM” value was 2.43%.

With `COc1ccccc1NC(=O)OCC#CCOC(=O)Nc1ccccc1OC`, the “hERG current change (%, negative = inhibition) at 1uM” value amounted to 6.61%.

Turning to `Oc1ccc(N=C/C=C/c2cccc(Br)c2)cc1-c1nc2ccccc2s1`, the “hERG current change (%, negative = inhibition) at 1uM” value is 13.4%.

As to `O=C(Nc1ccc(Cl)c(S(=O)(=O)N2CCOCC2)c1)c1ccc(OCC2CCCO2)cc1` (stereo not shown), the “hERG current change (%, negative = inhibition) at 1uM” value is recorded as 4.26%.

For the molecule `O=C1CCC(C(=O)OCC(=O)C23CC4CC(CC(C4)C2)C3)N1` (stereo not shown), the “hERG current change (%, negative = inhibition) at 1uM” value was 6.35%.

Consider `Cc1ccc(OCC(=O)OCc2nc3scc(-c4ccccc4)c3c(=O)[nH]2)cc1C`, for which the “hERG current change (%, negative = inhibition) at 1uM” value is 9.79%.

`Cn1cc(C(=O)N/N=C/c2cccc(O)c2)ccc1=O`: the “hERG current change (%, negative = inhibition) at 1uM” value is 14.4%.

`O=C(NNC(=O)c1cccc(-n2cnnn2)c1)c1ccccc1`: the “hERG current change (%, negative = inhibition) at 1uM” value came to 18.7%.

`Cl.Nc1cccc(Nc2ncnc3ccccc23)c1`: the “hERG current change (%, negative = inhibition) at 1uM” value is listed as 15.6%.

As for `CC(=O)NC1C(=O)Nc2c1cccc2C(F)(F)F` (stereo not shown), the “hERG current change (%, negative = inhibition) at 1uM” value was found to be 14.3%.

Regarding `CCOc1ccc(NC2CCCCC2NS(=O)(=O)c2ccccc2)cc1` (stereo not shown), the “hERG current change (%, negative = inhibition) at 1uM” value was determined as 8.2%.

With `COc1ccc(NC(=O)CCN2C(=O)c3ccccc3C2=O)c(OC)c1`, the “hERG current change (%, negative = inhibition) at 1uM” value worked out at 11.1%.

Regarding `Clc1cnc(Nc2cccnc2)c(Cl)c1`, the “hERG current change (%, negative = inhibition) at 1uM” value was found to be 12.9%.

`Cc1cc(C(=O)O)cc(Br)c1N`: the “hERG current change (%, negative = inhibition) at 1uM” value was 5.4%.

`CCCn1c(NC(=O)c2ccc(Br)cc2)nc2ccccc21`: the “hERG current change (%, negative = inhibition) at 1uM” value stood at 4.48%.

With `CN(C)CC1CSCCC1(O)c1ccccc1Cl.Cl` (stereo not shown), the “hERG current change (%, negative = inhibition) at 1uM” value was 6.19%.

On to `CCN(CC)S(=O)(=O)c1ccc2c(c1)c(=O)c(C(=O)N1CCOCC1)cn2C`, for which the “hERG current change (%, negative = inhibition) at 1uM” value is given as 1.12%.

Turning to `Cc1ccc(CN(C(=O)c2c(F)cccc2F)C2CC(C)(C)NC(C)(C)C2)o1.Cl`, the “hERG current change (%, negative = inhibition) at 1uM” value was determined as 7.33%.

Turning to `COc1cccc(/C=N/NC(=O)CSc2ccccc2C)c1O`, the “hERG current change (%, negative = inhibition) at 1uM” value is listed as -6.07%.

For the molecule `Cc1ccc2c(C(=O)CN3CCN(C(=O)c4ccco4)CC3)c(C)[nH]c2c1`, the “hERG current change (%, negative = inhibition) at 1uM” value is listed as 0.527%.

As for `CCN(CC)CCOC(=O)c1ccc(N=Cc2c(O)[nH]c(=O)[nH]c2=O)cc1`, the “hERG current change (%, negative = inhibition) at 1uM” value is 7.64%.

Take `Cc1ccc(S(=O)(=O)NC2CCCCC2)cc1`: the “hERG current change (%, negative = inhibition) at 1uM” value is 11.3%.

In the case of `Cc1nc2nc(-c3ccccc3)[nH]n2c(=O)c1C`, the “hERG current change (%, negative = inhibition) at 1uM” value is listed as 5.03%.

Regarding `CCS(=O)(=O)N1CCC(C(=O)NCCCN2CCCC2)CC1`, the “hERG current change (%, negative = inhibition) at 1uM” value is listed as 16.5%.
